Screen size: about 48,000 compounds; about 550 (1.1%) were called active. Roughly 4% stayed inconclusive and do not appear here. Cut-off read from the data, not from the text of the source: active = potency below about 15 µM; inconclusive = mostly about 16 µM to 33 µM; inactive = weaker than that. Some of the results follow.
These molecules were tested against Lysosomal acid glucosylceramidase (Homo sapiens) (UniProt P04062) (assay: Glucocerebrosidase). Details: purified enzyme, resorufin glucoside fluorescence (screen aimed at inhibitors), 20 min.
UniProt P04062, sequence (P04062 whole entry, looked up): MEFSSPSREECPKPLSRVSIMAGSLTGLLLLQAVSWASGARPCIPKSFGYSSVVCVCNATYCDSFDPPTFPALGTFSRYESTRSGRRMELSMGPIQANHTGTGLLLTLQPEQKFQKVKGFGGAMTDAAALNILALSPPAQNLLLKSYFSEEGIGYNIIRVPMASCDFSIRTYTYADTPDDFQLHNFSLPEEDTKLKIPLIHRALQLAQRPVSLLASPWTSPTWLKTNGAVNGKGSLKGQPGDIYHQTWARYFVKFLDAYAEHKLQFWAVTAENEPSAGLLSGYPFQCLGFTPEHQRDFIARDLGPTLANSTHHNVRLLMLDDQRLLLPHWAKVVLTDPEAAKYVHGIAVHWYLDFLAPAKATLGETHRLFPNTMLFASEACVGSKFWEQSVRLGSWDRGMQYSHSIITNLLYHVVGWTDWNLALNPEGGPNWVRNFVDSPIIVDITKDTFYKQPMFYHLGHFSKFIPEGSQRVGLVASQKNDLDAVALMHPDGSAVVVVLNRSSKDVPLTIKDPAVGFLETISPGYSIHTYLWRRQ
Method in brief: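 Normal human glucocerebrosidase (0.2 nM final) was assayed with resorufin β-D-glucopyranoside (30 uM final) in 50mM citric acid/KH2PO4, 10mM sodium taurocholate, 0.01% tween-20, pH 5.9. Compounds were titrated; fluorescence (Ex 548, Em 600) read after 20 min at RT.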
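Note: the screen sought inhibitors.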
Potency is the fitted concentration of half-maximal effect.

Potency, inactive:
O=C(OCCOc1ccc(Br)cc1)c1cnccn1 > 76.9 µM
CCN1CCN(CCCNC(=O)C2CCCN(c3nnc(-n4cccc4)s3)C2)CC1 (stereo not given) > 76.9 µM
C=C(C)CSCc1nc2ccccc2[nH]1 > 76.9 µM
Cn1cc(Cl)c(C(=O)NC2CCCCCC2)n1 > 76.9 µM
N/C(CN1CCCC1=O)=N\O > 76.9 µM
Cc1cc(NS(=O)(=O)c2cccs2)no1 > 76.9 µM
CC(C)(C)c1cn(-c2ccccc2)c(=S)[nH]1 > 76.9 µM
COc1cccc(/C(O)=C2/C(=O)C(=O)N(CCN(C)C)C2c2ccccn2)c1 (stereo not given) > 76.9 µM
COc1ccc(C(c2nnnn2CC2CCCO2)N2CCN(c3ccc(F)cc3)CC2)cc1 (stereo not given) > 76.9 µM
Nc1cc(=O)[nH]c(SCc2cccc(Cl)c2)n1 > 76.9 µM
COC(=O)c1[nH]c2ccc(C)cc2c1NC(=O)CN1CCCCC1C (stereo not given) > 76.9 µM
COc1nc(OC)nc(N2CCC(C(=O)NCc3cccs3)CC2)n1 > 76.9 µM
CCOC(=O)C(CC)n1cnc2c(oc3ccccc32)c1=O (stereo not given) > 76.9 µM
Cn1c(=O)[nH]c(=O)c2c1nc(N1CCc3ccccc3C1)n2CCSc1nc2ccccc2s1 > 76.9 µM
CCC(Oc1ccccc1)C(=O)Nc1nnc(C)s1 (stereo not given) > 76.9 µM
Nc1nncn1C(=O)c1ccccc1Cl > 76.9 µM
COc1cc(=O)[nH]c(SCc2c(F)c(F)c(F)c(F)c2F)n1 > 76.9 µM
CCCC(=O)Nc1ccc2c(c1)C(=O)N(CCC(=O)O)C2=O > 76.9 µM
CCCc1[nH]nc2c1C(c1ccc(OC)cc1OC)C(C#N)=C(N)O2 (stereo not given) > 76.9 µM
COC(=O)c1ccc(Cc2ccc(C(=O)OC)o2)o1 > 76.9 µM
CC(OC(=O)c1ccco1)C(=O)NCc1cccs1 (stereo not given) > 76.9 µM
COc1ccc(OC)c(-n2c(C)nc3cc(C(=O)O)ccc32)c1 > 76.9 µM
Cc1ccc(C(=O)Nc2sc3c(c2C(=O)O)CCCCC3)o1 > 76.9 µM
CCOc1cccc(-n2nnnc2-c2ccc(OC)cc2)c1 > 76.9 µM
O=C(Nc1ccccc1C(F)(F)F)c1cc(-c2cccc(O)c2)on1 > 76.9 µM
c1ccc(NC(=NCc2ccco2)c2ccccc2)cc1 > 76.9 µM
CCCCOn1c(C)c(C(=O)OCC)c2c3nonc3ccc21 > 76.9 µM
O=C(CSc1ncn[nH]1)c1ccco1 > 76.9 µM
Cc1nn(CC(=O)NCc2ccccc2)c(=O)c2ccccc12 > 76.9 µM
CCOC(=O)CNC(=O)CSc1nc2cccnc2n1C1CCCCC1 > 76.9 µM
O=C(NC1CCCCC1)c1nc2c(nnn2Cc2ccccc2Cl)c(=O)[nH]1 > 76.9 µM
COc1cc(Cl)cc(NC(=O)CCN2CCN(C)CC2)c1 > 76.9 µM
O=C(Cn1cnc2c(nnn2Cc2ccc(Cl)cc2)c1=O)NCC1CCCO1 (stereo not given) > 76.9 µM
O=C(CNC(=O)c1ccco1)OCc1c(F)cccc1Cl > 76.9 µM
C=CCn1c(SCC(=O)Nc2cc(C)nn2-c2ccccc2)nnc1C1CCCCC1 > 76.9 µM
CCOc1ccc(-c2n[nH]c(C)c2Oc2ccc(OC)cc2)c(O)c1 > 76.9 µM
CCN(CC)CCNc1nc2ccccc2n1C > 76.9 µM
CCCCNC(=O)c1ccc2c(c1)N(CC)C(=O)CS2 > 76.9 µM
O=C(c1ccc2c(c1)OCO2)N(CC1CCCO1)C1(C(=O)NC2CCCC2)CCCCC1 (stereo not given) > 76.9 µM
COc1ccc(OC)c(N=c2oc3cc(O)ccc3cc2C(N)=O)c1 > 76.9 µM
CC(=O)NC12CC3CC(C1)CC(C(=O)OCC(=O)c1ccc4c(c1)OCCO4)(C3)C2 > 76.9 µM
COC(=O)c1ccc(NC(=O)CN(C2CCCCC2)S(C)(=O)=O)cc1 > 76.9 µM
O=C(CSc1nc2c(c(=O)n1-c1ccc(Br)cc1)SCC2)Nc1nccs1 > 76.9 µM
CN(C)C=Nc1nonc1-c1ncn[nH]1 > 76.9 µM
O=C(CCN1C(=O)C2C3C=CC(C3)C2C1=O)NCC1CCCO1 (stereo not given) > 76.9 µM
CCOc1ccc(-n2c(=O)c3c4c(sc3n(CC(=O)NCc3ccco3)c2=O)CCC4)cc1 > 76.9 µM
CN1CCN(c2nc(Nc3cccc(C(F)(F)F)c3)nc(N3CCOCC3)n2)CC1 > 76.9 µM
CCOC(=O)c1sc2ccc(S(=O)(=O)N3CCOCC3)cc2c1N > 76.9 µM
CCCN1CCN(C(=O)c2cn(CC(C)C)c(=O)c3cc(OC)c(OC)cc23)CC1 > 76.9 µM
COc1ccc(C2CC(C(F)(F)F)n3nc(C(=O)NCCCn4ccnc4)cc3N2)cc1OC (stereo not given) > 76.9 µM
N=c1ccn(Cc2ccc(Cl)c(Cl)c2)cc1 > 76.9 µM
Cc1c(C)[n+](=O)c(-c2cccs2)c(C)n1[O-] > 76.9 µM
CCn1c(=O)n(CC)c2cc(S(=O)(=O)N3CCOCC3)ccc21 > 76.9 µM
CC(=O)N1CCc2cc(S(=O)(=O)NC(CC(C)C)C(=O)Nc3cc(C)ccn3)ccc21 (stereo not given) > 76.9 µM
Cc1cc(S(=O)(=O)NC2CCCCC2)c(C)s1 > 76.9 µM
CCNc1nc(-c2ccc(Cl)cc2)cs1 > 76.9 µM
COCCn1c(COc2ccccc2)nnc1SCC(N)=O > 76.9 µM
CCc1c(C(=O)NCc2cnn(C)c2)csc1C > 76.9 µM
O=C(Cc1ccccc1)CC1(O)C(=O)Nc2ccccc21 (stereo not given) > 76.9 µM
CCOC(=O)Cn1c(=O)oc2cc(S(=O)(=O)Nc3cc(OCC)ccc3OCC)ccc21 > 76.9 µM

— PubChem BioAssay AID360 (National Center for Advancing Translational Sciences (NCATS), 2006)
